# Source: paper PMC4336329 (PLoS ONE, 2015)
# The campaign covered roughly 310,000 compounds. About 14,000 (4.5%) showed an effect of 50% or more. The effect is printed as a negative number. The list shows a part of the results.
# Target: human ether-à-go-go-related gene (hERG) potassium channel (human, UniProt Q12809)
# Assay: primary screen, population patch clamp on CHO cells stably expressing hERG
# 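Also: peak tail current of the secondary pulse compared with the same well before compound.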
# Sequence of human ether-à-go-go-related gene (hERG) potassium channel (Q12809 whole entry, looked up): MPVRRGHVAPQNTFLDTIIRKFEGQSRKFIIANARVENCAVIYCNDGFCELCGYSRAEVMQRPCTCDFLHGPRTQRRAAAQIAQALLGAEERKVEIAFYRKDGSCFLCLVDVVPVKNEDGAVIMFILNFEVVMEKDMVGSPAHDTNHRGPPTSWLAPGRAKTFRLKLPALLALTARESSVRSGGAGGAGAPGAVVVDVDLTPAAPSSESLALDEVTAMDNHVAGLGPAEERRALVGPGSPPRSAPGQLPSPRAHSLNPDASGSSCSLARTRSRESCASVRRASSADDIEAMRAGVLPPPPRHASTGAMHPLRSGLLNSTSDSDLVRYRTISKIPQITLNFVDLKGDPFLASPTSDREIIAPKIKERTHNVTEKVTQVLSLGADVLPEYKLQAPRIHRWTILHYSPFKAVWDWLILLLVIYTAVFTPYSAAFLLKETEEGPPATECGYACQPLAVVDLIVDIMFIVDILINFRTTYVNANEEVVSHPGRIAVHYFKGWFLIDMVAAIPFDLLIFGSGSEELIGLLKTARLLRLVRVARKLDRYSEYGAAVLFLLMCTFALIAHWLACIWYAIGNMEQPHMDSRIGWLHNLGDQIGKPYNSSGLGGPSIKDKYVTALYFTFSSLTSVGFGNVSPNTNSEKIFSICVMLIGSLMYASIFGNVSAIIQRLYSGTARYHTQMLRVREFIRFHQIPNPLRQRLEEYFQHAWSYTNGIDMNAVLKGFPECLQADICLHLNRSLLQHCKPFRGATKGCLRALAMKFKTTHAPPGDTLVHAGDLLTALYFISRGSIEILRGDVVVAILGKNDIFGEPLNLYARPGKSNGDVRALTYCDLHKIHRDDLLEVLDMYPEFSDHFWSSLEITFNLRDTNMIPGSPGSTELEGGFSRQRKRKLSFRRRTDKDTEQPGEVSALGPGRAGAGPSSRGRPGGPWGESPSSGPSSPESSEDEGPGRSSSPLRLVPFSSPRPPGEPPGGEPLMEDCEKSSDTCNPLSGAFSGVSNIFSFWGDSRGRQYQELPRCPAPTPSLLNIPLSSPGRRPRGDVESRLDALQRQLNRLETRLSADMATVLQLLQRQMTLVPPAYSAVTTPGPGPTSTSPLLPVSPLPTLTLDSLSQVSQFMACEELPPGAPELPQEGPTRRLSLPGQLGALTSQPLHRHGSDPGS
row,Compound,"hERG current change (%, negative = inhibition) at 10uM [%]"
1,Cc1ccc2nc(-c3ccc(NC(=O)CCS(=O)(=O)c4ccccc4)cc3)sc2c1,2.03
2,CCOC(=O)c1cc(OC(=O)c2cccc([N+](=O)[O-])c2)n(-c2ccccc2)n1,3.84
3,CCCn1c(=O)c2c(nc3n2CC(C)CN3Cc2ccccc2)n(C)c1=O (stereo not drawn),-39.4
4,CCOC(=O)C1CCN(C(=O)c2cccc(S(=O)(=O)N3CCc4ccccc43)c2)CC1,-56.4
5,CCOc1ccc2nc(N(CCCN(C)C)C(=O)c3ccc4c(c3)CCCC4)sc2c1.Cl,-14.1
6,COc1ccc(Cl)cc1CSc1ncn[nH]1,-3.67
7,O=C(CCNC(=O)c1ccco1)Nc1ccccc1,15
8,CC(=O)Nc1cccc(OCC(O)Cn2c(C)nc3ccccc32)c1 (stereo not drawn),10.3
9,CCC(C(=O)OCC(=O)Nc1ccc(OC)cc1OC)c1ccccc1 (stereo not drawn),-29.8
10,CC(C)NC(=O)c1sc2c(c1C(=O)Nc1cccnc1)CCCC2,-69.7
11,CCc1nc2cc(Cl)c(Cl)cc2[nH]1,2.59
12,O=C(NCCC1=CCCCC1)c1ccc(F)cc1,-9.04
13,COc1ccc2c(c1)c(C(=O)N/N=C/c1cccc(O)c1)c(C)n2C,-17.7
14,C=CCOc1c(Br)cc(/C=N\n2nnnc2N)cc1OC,4.66
15,COc1ccc(C2(C)NC(=O)N(CC(=O)Nc3ccc(C)cc3Br)C2=O)cc1OC (stereo not drawn),1.02
16,O=C(O)CCC(=O)c1ccc2ccc3cccc4ccc1c2c34,13.7
17,CCN(Cc1ccccc1)C(=O)CS(=O)(=O)c1ccccc1,1.42
18,O=C(CSc1ncnc2nc[nH]c12)c1ccccc1,14.6
19,NC(=O)CSc1nc(-c2ccccc2)nc2ccccc12,-0.916
20,Cc1ccccc1C(=O)NC(=S)Nc1ccc2[nH]c(=O)[nH]c2c1,23.1
21,CCCCn1c(N)c(N(CC(C)C)C(=O)Cc2ccc3c(c2)OCCO3)c(=O)[nH]c1=O,4.66
22,CC(C)OCCCNc1ncnc2c1nc1n2CCCC1,-72.6

row,Compound,"hERG current change (%, negative = inhibition) at 10uM [%]"
1,Cc1cc2c3c([nH]c2cc1S(=O)(=O)NCc1ccc(CN2CCCCCC2)o1)CCCC3=O,-31.9
2,Cc1ccc(C)c2[nH]c(=O)c(CCNS(=O)(=O)c3ccccc3)cc12,-8.54
3,N#Cc1cnc(N)c(Br)c1,12.5
4,Cc1nn(C)c(NC(=O)c2ccccc2Cl)c1Br,14.8
5,O=C(NCC1CCCO1)c1cc2c(s1)CCC2 (stereo not drawn),34.1
6,CCc1ccc(N2C(=O)NC(=O)/C(=C\C=C\c3ccco3)C2=O)cc1,5.2
7,O=C(CSc1nc2ccccc2c(=O)n1Cc1ccco1)Nc1cccc(O)c1,3.9
8,COC(=O)C(C)n1cnc2c(nnn2Cc2ccc(Cl)cc2)c1=O (stereo not drawn),-16.4
9,Cc1nc2ccc(S(=O)(=O)NC(C(=O)N3CCCC3)C(C)C)cc2s1 (stereo not drawn),7.12
10,O=[N+]([O-])c1cc(C=Nc2ccc3ccccc3c2)ccc1Br,7.6
11,Cc1cc(C)n(C(=O)c2ccc([N+](=O)[O-])c(Cl)c2)n1,19.7
12,CCCCN(C(=O)C1CC(=O)N(Cc2ccc(C)cc2)C1)c1c(N)n(CCCC)c(=O)[nH]c1=O (stereo not drawn),20.4
13,O=C(OCn1nnc2ccccc2c1=O)c1ccc2c(=O)n3c(nc2c1)CCC3,-7.06
14,Cc1ccc(S(=O)(=O)N(C)c2ccc(C(=O)N3CCc4ccccc4C3)cc2)cc1,-40.6
15,CCn1nccc1C(=O)Nc1ccc(Cl)cn1,-6.17
16,CCCCN1C(=O)/C(=C2/Sc3ccc(Cl)cc3N2CC)SC1=S,16.9
17,O=C(NCc1ccc2c(c1)OCO2)C(=O)NCC1OCCN1S(=O)(=O)c1ccc(F)cc1 (stereo not drawn),-5.71
18,CCOC(=O)c1cc2c(ccn2C)n1CC(=O)N1CCCC(C)C1 (stereo not drawn),-5.62
19,CCCCNC(=S)NNC(=O)c1sccc1C,1.59
20,Clc1nc(-c2ccccc2)c2ccccc2n1,4.43
21,NC(=O)Nc1cccc(C(F)(F)F)c1,1.74
22,O=C(C[n+]1ccccc1)Nc1ccc(Oc2ccccc2)cc1.[Cl-],2.49

row,Compound,"hERG current change (%, negative = inhibition) at 10uM [%]"
1,Nc1cc(C(=O)OCC(=O)NCc2ccco2)ccc1Cl,1.41
2,CC(=O)Nc1cccc(NC(=O)CSc2nnnn2Cc2ccccc2)c1,-5.41
3,CCOc1ccc(N(CC(=O)NCc2ccccc2)C(=O)CCC(=O)Nc2nccs2)cc1,-7.72
4,C#CCCOC(=O)N1C2=NC(C(=O)OC)=C(C(=O)OC)[C@@H]3N(C)c4ccc(OC)cc4[C@]23C[C@H]1C(=O)OC,-16.3
5,Cn1c(C2CCCN2C(=O)OC(C)(C)C)n[nH]c1=S (stereo not drawn),8.3
6,CCOC(=O)C1CCN(Cc2cc(=O)oc3cc(C)c(Cl)cc23)CC1,8.83
7,COc1cc(Cl)c(S(=O)(=O)N2CCN(Cc3ccc4c(c3)OCO4)CC2)cc1Cl,-3.28
8,Cc1ccc(Cn2c(C)c3cnn(CC(=O)N4CCC5(CC4)OCCO5)c(=O)c3c2C)cc1,7.14
9,CCOc1ccc(OCC)c(NC(=O)C2CCN(S(=O)(=O)c3cccc4nonc34)CC2)c1,17.5
10,CC(C)n1c(N2CCCC2)nc2c1c(=O)[nH]c(=O)n2C,12.9
11,CNC(=O)C1CC(=O)N(c2ccc(OCC(=O)N3CCCC3)cc2)C1 (stereo not drawn),19.8
12,Cc1cccc2cc(CN(Cc3cccnc3)C(=S)NCCCN(C)C)c(=O)[nH]c12,3.93
13,COc1ccc(C)cc1Nc1n[n+](-c2ccccc2)c(-c2cccc(Cl)c2Cl)s1.[Cl-],10
14,O=C(O)CC(C(=O)O)n1nc(-c2ccccc2)cc1-c1ccccc1 (stereo not drawn),1.53
15,CN(CCN1CCOCC1)Cc1nc(-c2ccc3c(c2)OCO3)no1,1.05
16,COC(=O)c1cccc(N(C(=O)c2cnccn2)C(C(=O)NC2CCCCC2)c2cn(C)nc2C)c1 (stereo not drawn),-1.75
17,O=C(Cn1c(C(=O)NCC2CCCO2)cc2sccc21)c1ccccc1 (stereo not drawn),-3.47
18,O=CN/C=C/c1cc(O)ccc1O,-23.5
19,COCCNC(=O)C(c1ccccc1)N(C(=O)Cn1nnc2ccccc21)c1cccnc1 (stereo not drawn),9.33
20,NCCc1c(C(=O)O)[nH]c2ccc([N+](=O)[O-])cc12,6.36
21,O=C(NNS(=O)(=O)c1ccccc1)c1cc2cc3ccccc3nc2s1,-10.4
22,COc1ccc(NC(=O)c2c3c(nc4ccccc24)CCC3)cc1S(=O)(=O)N1CCOCC1,-10.9

row,Compound,"hERG current change (%, negative = inhibition) at 10uM [%]"
1,O=c1c2c3c(sc2n(CCN2CCCC2)c(=O)n1Cc1ccccc1)CCCCC3,-34.7
2,c1cncc(-c2nc(NCCCN3CCOCC3)c3c4c(sc3n2)CCC4)c1,10.1
3,COc1ccc(-c2cc(C(=O)Nc3ccc(O)cc3)c3ccccc3n2)cc1OC,0.848
4,CCCCCCSc1cccc(-c2nc3ccc(C)cn3c2NC2CCCCC2)c1.O=C(O)C(F)(F)F,4.18
5,[N-]=[N+]=NC1c2ccccc2C(=O)N1Cc1ccccc1 (stereo not drawn),10
6,Cc1cc(N2CCOCC2)nc(C(C)C)n1,6.61
7,COc1ccc(Cn2c(=S)[nH]c3cc(C(=O)NCCCN4CCOCC4)ccc3c2=O)cc1,24.1
8,C=CCn1c(NC(=O)c2ccc(Br)o2)c(C(=O)OCC)sc1=S,37
9,NC(=O)c1ccc(NC(=O)CSc2nnc(-c3ccncc3)n2Cc2ccco2)cc1,2.42
10,NS(=O)(=O)c1ccc(NC(=O)CN2CCN(S(=O)(=O)/C=C/c3ccccc3)CC2)cc1,-9.04
11,O=C(COC(=O)c1cccc(Cl)c1)Nc1cc(Cl)ccc1Oc1ccccc1,15.1
12,C=CCOc1ccc(C2NC(=O)NC(C)=C2C(=O)OC)cc1 (stereo not drawn),-17
13,O=C(O)C1CCCN(S(=O)(=O)c2cccs2)C1 (stereo not drawn),4.67
14,COCc1c(C(=O)Nc2nc(C)cs2)oc2ccccc12,-2.57
15,CCCCC(O)(CCCC)C(=O)NN(C(=O)c1cccnc1Cl)c1ccccc1,-3.75
16,CCc1cc(=O)oc2cc(C)cc(OC(C)C(=O)NCCCn3ccnc3)c12 (stereo not drawn),-30.9
17,O=C(CCCN1C(=O)C(c2ccccc2)Oc2cccnc21)NCc1ccccc1Cl (stereo not drawn),46.5
18,COC(=O)c1ccnc(/C=N/O)c1,10.7
19,C[C@H](NC(=O)c1nc[nH]c1C(=O)N[C@@H](CCCCNC(=O)OC(C)(C)C)C(=O)OC(C)(C)C)C(=O)OCc1ccccc1,0.44
20,COc1ccc([C@H]2CC(=O)C=C(c3ccc(-c4ccccc4)cc3)C2)cc1OC,13.5
21,CC(C)(C)C(=O)COC(=O)c1ccc(O)cc1,-0.497
